Results published in the supplement of paper PMC8728848.
Some of the results follow.

Assays:
Assay in all cases: glycan array binding signal (z-score within array); higher = stronger binding
Settings in all cases: glycan notation: IUPAC condensed, linker removed
Fuc(a1-2)Gal6S(b1-4)Glc = target: Fuc(a1-2)Gal6S(b1-4)Glc
Method in brief: (§1)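 The binding signal is a Z-score computed within each array. Data were drawn from 3228 arrays in the Consortium for Functional Glycomics database, restricted to those with a known protein sequence. Scores were averaged over arrays of the same protein sequence at different concentrations or buffers, and over linkers, and negative values can be taken as non-binding.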

[1] = target: Fuc(a1-2)Gal6S(b1-4)Glc6S
Method in brief: as §1

[2] = target: Fuc(a1-2)Gal6S(b1-4)GlcNAc
Method in brief: as §1

Fuc(a1-2)[Gal(a1-3)]Gal = target: Fuc(a1-2)[Gal(a1-3)]Gal
Method in brief: as §1

[3] = target: Fuc(a1-2)[Gal(a1-3)]Gal(b1-3)GalNAc
Method in brief: as §1

[4] = target: Fuc(a1-2)[Gal(a1-3)]Gal(b1-3)GlcNAc
Method in brief: as §1

[5] = target: Fuc(a1-2)[Gal(a1-3)]Gal(b1-3)GlcNAc(b1-2)Man(a1-3)[Fuc(a1-2)[Gal(a1-3)]Gal(b1-3)GlcNAc(b1-2)Man(a1-6)]Man(b1-4)GlcNAc(b1-4)GlcNAc
Method in brief: as §1

[6] = target: Fuc(a1-2)[Gal(a1-3)]Gal(b1-3)GlcNAc(b1-2)Man(a1-3)[Fuc(a1-2)[Gal(a1-3)]Gal(b1-3)GlcNAc(b1-2)Man(a1-6)]Man(b1-4)GlcNAc(b1-4)[Fuc(a1-6)]GlcNAc
Method in brief: as §1

[7] = target: Fuc(a1-2)[Gal(a1-3)]Gal(b1-3)GlcNAc(b1-3)GalNAc
Method in brief: as §1

[8] = target: Fuc(a1-2)[Gal(a1-3)]Gal(b1-4)Glc
Method in brief: as §1

[9] = target: Fuc(a1-2)[Gal(a1-3)]Gal(b1-4)GlcNAc
Method in brief: as §1

[10] = target: Fuc(a1-2)[Gal(a1-3)]Gal(b1-4)GlcNAc(b1-2)Man(a1-3)[Fuc(a1-2)[Gal(a1-3)]Gal(b1-4)GlcNAc(b1-2)Man(a1-6)]Man(b1-4)GlcNAc(b1-4)GlcNAc
Method in brief: as §1

[11] = target: Fuc(a1-2)[Gal(a1-3)]Gal(b1-4)GlcNAc(b1-2)Man(a1-3)[Fuc(a1-2)[Gal(a1-3)]Gal(b1-4)GlcNAc(b1-2)Man(a1-6)]Man(b1-4)GlcNAc(b1-4)[Fuc(a1-6)]GlcNAc
Method in brief: as §1

[12] = target: Fuc(a1-2)[Gal(a1-3)]Gal(b1-4)GlcNAc(b1-3)GalNAc
Method in brief: as §1

[13] = target: Fuc(a1-2)[Gal(a1-3)]Gal(b1-4)GlcNAc(b1-6)GalNAc
Method in brief: as §1

[14] = target: Fuc(a1-2)[Gal(a1-3)]Gal(b1-4)[Fuc(a1-3)]Glc
Method in brief: as §1

[15] = target: Fuc(a1-2)[Gal(a1-3)]Gal(b1-4)[Fuc(a1-3)]GlcNAc
Method in brief: as §1

[16] = target: Fuc(a1-2)[Gal(a1-3)]Gal(b1-4)[Fuc(a1-3)]GlcNAc(b1-3)GalNAc
Method in brief: as §1

[17] = target: Fuc(a1-2)[Gal(a1-4)]Gal(b1-4)GlcNAc
Method in brief: as §1

[18] = target: Fuc(a1-2)[GalNAc(a1-3)]Gal
Method in brief: as §1

[19] = target: Fuc(a1-2)[GalNAc(a1-3)]Gal(b1-3)GalNAc(a1-3)[Fuc(a1-2)]Gal(b1-4)GlcNAc
Method in brief: as §1

[20] = target: Fuc(a1-2)[GalNAc(a1-3)]Gal(b1-3)GlcNAc
Method in brief: as §1

[21] = target: Fuc(a1-2)[GalNAc(a1-3)]Gal(b1-3)GlcNAc(b1-2)Man(a1-3)[Fuc(a1-2)[GalNAc(a1-3)]Gal(b1-3)GlcNAc(b1-2)Man(a1-6)]Man(b1-4)GlcNAc(b1-4)GlcNAc
Method in brief: as §1

[22] = target: Fuc(a1-2)[GalNAc(a1-3)]Gal(b1-3)GlcNAc(b1-2)Man(a1-3)[Fuc(a1-2)[GalNAc(a1-3)]Gal(b1-3)GlcNAc(b1-2)Man(a1-6)]Man(b1-4)GlcNAc(b1-4)[Fuc(a1-6)]GlcNAc
Method in brief: as §1

[23] = target: Fuc(a1-2)[GalNAc(a1-3)]Gal(b1-3)GlcNAc(b1-3)GalNAc
Method in brief: as §1

[24] = target: Fuc(a1-2)[GalNAc(a1-3)]Gal(b1-3)GlcNAc(b1-6)GalNAc
Method in brief: as §1

[25] = target: Fuc(a1-2)[GalNAc(a1-3)]Gal(b1-4)Glc
Method in brief: as §1

[26] = target: Fuc(a1-2)[GalNAc(a1-3)]Gal(b1-4)GlcNAc
Method in brief: as §1

[27] = target: Fuc(a1-2)[GalNAc(a1-3)]Gal(b1-4)GlcNAc(b1-2)Man(a1-3)[Fuc(a1-2)[GalNAc(a1-3)]Gal(b1-4)GlcNAc(b1-2)Man(a1-6)]Man(b1-4)GlcNAc(b1-4)GlcNAc
Method in brief: as §1

[28] = target: Fuc(a1-2)[GalNAc(a1-3)]Gal(b1-4)GlcNAc(b1-2)Man(a1-3)[Fuc(a1-2)[GalNAc(a1-3)]Gal(b1-4)GlcNAc(b1-2)Man(a1-6)]Man(b1-4)GlcNAc(b1-4)[Fuc(a1-6)]GlcNAc
Method in brief: as §1

[29] = target: Fuc(a1-2)[GalNAc(a1-3)]Gal(b1-4)GlcNAc(b1-3)Gal(b1-4)GlcNAc
Method in brief: as §1

[30] = target: Fuc(a1-2)[GalNAc(a1-3)]Gal(b1-4)GlcNAc(b1-3)Gal(b1-4)GlcNAc(b1-3)Gal(b1-4)GlcNAc
Method in brief: as §1

[31] = target: Fuc(a1-2)[GalNAc(a1-3)]Gal(b1-4)GlcNAc(b1-3)GalNAc
Method in brief: as §1

[32] = target: Fuc(a1-2)[GalNAc(a1-3)]Gal(b1-4)[Fuc(a1-3)]GlcNAc
Method in brief: as §1

[33] = target: Fuc(a1-2)[GalNAc(a1-3)]Gal(b1-4)[Fuc(a1-3)]GlcNAc(b1-3)GalNAc
Method in brief: as §1

[34] = target: Fuc(a1-2)[GalNAc(a1-4)]Gal(b1-4)GlcNAc
Method in brief: as §1

[35] = target: Fuc(a1-2)[GalNAc(b1-3)]Gal
Method in brief: as §1

Fuc(a1-3)GlcNAc = target: Fuc(a1-3)GlcNAc
Method in brief: as §1

[36] = target: Fuc(a1-3)[Gal(b1-4)]Glc6S
Method in brief: as §1

[37] = target: Fuc(a1-3)[Gal(b1-4)]GlcNAc
Method in brief: as §1

[38] = target: Fuc(a1-3)[Gal(b1-4)]GlcNAc(b1-2)Man
Method in brief: as §1

[39] = target: Fuc(a1-3)[Gal(b1-4)]GlcNAc(b1-2)Man(a1-3)[Fuc(a1-3)[Gal(b1-4)]GlcNAc(b1-2)Man(a1-6)]Man(b1-4)GlcNAc(b1-4)GlcNAc
Method in brief: as §1

[40] = target: Fuc(a1-3)[Gal(b1-4)]GlcNAc(b1-2)Man(a1-3)[Fuc(a1-3)[Gal(b1-4)]GlcNAc(b1-2)Man(a1-6)]Man(b1-4)GlcNAc(b1-4)[Fuc(a1-6)]GlcNAc
Method in brief: as §1

[41] = target: Fuc(a1-3)[Gal(b1-4)]GlcNAc(b1-3)Gal(b1-3)[Fuc(a1-4)]GlcNAc
Method in brief: as §1

[42] = target: Fuc(a1-3)[Gal(b1-4)]GlcNAc(b1-3)GalNAc
Method in brief: as §1

B1: Gal 4 (Homo sapiens), Q8K419 (protein)
chain: MAYVPAPGYQPTYNPTLPYKRPIPGGLSVGMSVYIQGMAKENMRRFHVNFAVGQDDGADVAFHFNPRFDGWDKVVFNTMQSGQWGKEEKKKSMPFQKGKHFELVFMVMPEHYKVVVNGNSFYEYGHRLPVQMVTHLQVDGDLELQSINFLGGQPAAAPYPGAMTIPAYPAGSPGYNPPQMNTLPVMTGPPVFNPRVPYVGALQGGLTVRRTIIIKGYVLPTARNFVINFKVGSSGDIALHLNPRIGDSVVRNSFMNGSWGAEERKVAYNPFGPGQFFDLSIRCGMDRFKVFANGQHLFDFSHRFQAFQMVDTLEINGDITLSYVQI
For B1, the “glycan array binding signal (z-score)” value (Fuc(a1-2)Gal6S(b1-4)Glc) was -0.196, the “glycan array binding signal (z-score)” value [1] was -0.201 and the “glycan array binding signal (z-score)” value [2] was -0.198. For the same binder, the “glycan array binding signal (z-score)” value (Fuc(a1-2)[Gal(a1-3)]Gal) was -0.201, the “glycan array binding signal (z-score)” value [3] was 0.833 and the “glycan array binding signal (z-score)” value [4] was 2.91. The “glycan array binding signal (z-score)” value [5] was 1.26, the “glycan array binding signal (z-score)” value [6] was 0.436 and the “glycan array binding signal (z-score)” value [7] was 0.753. For the same binder, the “glycan array binding signal (z-score)” value [8] was 3.5, the “glycan array binding signal (z-score)” value [9] was 1.43 and the “glycan array binding signal (z-score)” value [10] was 0.405. For the same binder, the “glycan array binding signal (z-score)” value [11] was 0.074, the “glycan array binding signal (z-score)” value [12] was -0.006 and the “glycan array binding signal (z-score)” value [13] was -0.21. For the same binder, the “glycan array binding signal (z-score)” value [14] was -0.108, the “glycan array binding signal (z-score)” value [15] was -0.199 and the “glycan array binding signal (z-score)” value [16] was -0.195. The “glycan array binding signal (z-score)” value [17] was -0.197, the “glycan array binding signal (z-score)” value [18] was -0.2 and the “glycan array binding signal (z-score)” value [19] was -0.024. For the same binder, the “glycan array binding signal (z-score)” value [20] was 4.09, the “glycan array binding signal (z-score)” value [21] was 1.51 and the “glycan array binding signal (z-score)” value [22] was 0.306. For the same binder, the “glycan array binding signal (z-score)” value [23] was 0.518, the “glycan array binding signal (z-score)” value [24] was 1.99 and the “glycan array binding signal (z-score)” value [25] was 9.63. For the same binder, the “glycan array binding signal (z-score)” value [26] was 1.31, the “glycan array binding signal (z-score)” value [27] was 0.832 and the “glycan array binding signal (z-score)” value [28] was 0.088. For the same binder, the “glycan array binding signal (z-score)” value [29] was 1.31, the “glycan array binding signal (z-score)” value [30] was 0.768 and the “glycan array binding signal (z-score)” value [31] was -0.089. For the same binder, the “glycan array binding signal (z-score)” value [32] was -0.193, the “glycan array binding signal (z-score)” value [33] was -0.19 and the “glycan array binding signal (z-score)” value [34] was -0.201. For the same binder, the “glycan array binding signal (z-score)” value [35] was -0.007, the “glycan array binding signal (z-score)” value (Fuc(a1-3)GlcNAc) was -0.201 and the “glycan array binding signal (z-score)” value [36] was -0.189. The “glycan array binding signal (z-score)” value [37] was -0.2, the “glycan array binding signal (z-score)” value [38] was -0.212 and the “glycan array binding signal (z-score)” value [39] was -0.199. The “glycan array binding signal (z-score)” value [40] was -0.186, the “glycan array binding signal (z-score)” value [41] was -0.18 and the “glycan array binding signal (z-score)” value [42] was -0.196.
